From the supplement of paper PMC3334620
In all, about 33,000 sequences were measured (“E-score (-0.5 to 0.5)”: median about -0.043, highest 2% from about 0.37 on). The list shows a part of the results.

molecular target: T1, Upc2 (UniProt Q12151); assay: PBM E-score (8-mer binding enrichment) (E-score (-0.5 to 0.5)); higher = stronger / more preferred TF binding; most listed sequences are background and not binding sites; details: protein concentration: 200 nM; construct: GST-full length
T1 sequence: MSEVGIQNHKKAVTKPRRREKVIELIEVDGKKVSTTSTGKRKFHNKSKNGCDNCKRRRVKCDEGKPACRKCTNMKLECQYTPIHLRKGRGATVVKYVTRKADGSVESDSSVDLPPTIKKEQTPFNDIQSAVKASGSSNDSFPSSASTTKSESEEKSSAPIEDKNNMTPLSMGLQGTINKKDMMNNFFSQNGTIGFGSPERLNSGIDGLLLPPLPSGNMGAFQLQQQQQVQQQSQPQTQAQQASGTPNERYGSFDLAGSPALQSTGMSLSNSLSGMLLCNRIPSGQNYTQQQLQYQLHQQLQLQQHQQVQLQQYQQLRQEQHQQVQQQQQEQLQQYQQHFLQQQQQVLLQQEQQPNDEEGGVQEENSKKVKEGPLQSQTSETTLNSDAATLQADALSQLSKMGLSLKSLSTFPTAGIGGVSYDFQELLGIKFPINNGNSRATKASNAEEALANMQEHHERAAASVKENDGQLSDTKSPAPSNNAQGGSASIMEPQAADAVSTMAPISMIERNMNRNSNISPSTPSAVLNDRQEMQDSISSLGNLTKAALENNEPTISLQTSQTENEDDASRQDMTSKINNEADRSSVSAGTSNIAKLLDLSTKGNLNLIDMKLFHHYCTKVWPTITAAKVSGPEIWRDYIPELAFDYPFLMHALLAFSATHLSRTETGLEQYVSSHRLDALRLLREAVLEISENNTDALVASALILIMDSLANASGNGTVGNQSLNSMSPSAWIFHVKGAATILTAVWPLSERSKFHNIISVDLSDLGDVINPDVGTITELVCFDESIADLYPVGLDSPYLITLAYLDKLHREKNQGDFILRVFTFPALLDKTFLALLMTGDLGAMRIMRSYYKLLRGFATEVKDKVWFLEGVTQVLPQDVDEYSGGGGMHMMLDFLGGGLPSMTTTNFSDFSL
Outline: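 The E-score, a modified Wilcoxon-Mann-Whitney statistic, was computed by the Universal PBM Analysis Suite for every ungapped eight-base word pooled with its reverse complement. Scans behind it were normalised with masliner after bound GST-tagged yeast transcription factors were detected with fluorescent anti-GST. The proteins, at about 100-200 nM, had been applied to universal all-10-mer Agilent arrays made double-stranded by primer extension.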

Sequence	PBM E-score
CCTGCCTA	-0.207
AGTTGTTG	-0.293
ATATACTA	0.161
CCCGTGTA	0.0474
GAAGGCGA	-0.18
ATCATACC	-0.02
GGCTACCC	-0.22
GGATCCGA	0.0685
GACATGTC	-0.095
AAAAAACA	-0.00292
ACCCGGAC	-0.0931
ATTATCTA	0.0661
GTTATGCA	-0.225
CGTTCGGC	0.146
CGTAACTA	0.185
AAAAGAGC	0.076
AGTATATC	0.0604
ATGTAGGA	-0.215
CGGTTTTC	0.249
ATCGACAT	0.0418
ACCTCATC	-0.133
CGGGCTTA	-0.127
CGGACCCG	0.184
GCTGCACC	0.0672

Sequence	PBM E-score
CGCATTAC	0.18
CTACCATC	0.00378
AGAGCTTA	-0.0113
ATCTCATA	-0.0348
CCCGGAAC	0.158
AACTGTAA	0.103
GAGGCCGC	-0.162
TAGCCCAA	-0.195
CAACAAAC	0.0741
GTGCACAC	-0.24
CTAATCCA	-0.29
GAACTATC	0.0433
CAGAACCG	-0.0496
CCGCCACC	-0.157
ACTCTGCG	-0.00036
ATAGCGCG	0.0919
ACACTCTG	0.00062
CTGGTACC	-0.0969
TTCGCCAA	0.0392
ACAGTGAC	-0.0248
CATCGGCG	-0.201
CGTCAATA	-0.0786
ATGCGGAC	0.0379
GCTTCTCC	-0.102

Sequence	PBM E-score
ATTGCCAG	-0.0715
AATACCAC	-0.0925
ACTGTCCT	-0.136
AATTTCGG	0.0667
AAATTTTG	-0.171
AGCACTGC	-0.177
AAGTCAGC	0.0182
AGACTCGA	-0.181
ATTTGGCG	0.161
GGTACCAC	-0.18
GCATAAGA	0.0201
CTCTGGAC	-0.0919
CTCGGCTA	0.125
ATAGTACC	-0.084
AAGAGTAT	-0.111
AGCACAGC	0.0283
AGGCCGAC	-0.156
TTGGCCAA	-0.303
TAACTCTA	-0.0512
GCGCTAGA	-0.0391
CAGAACAC	-0.0983
TGGCTTAA	0.0926
AAGGTTCA	-0.145
TCGCTAGA	0.0467

Sequence	PBM E-score
ATGGATCA	-0.271
AAGCCTGG	-0.346
CCTGTGGC	-0.267
CAAATCCC	-0.0579
CTGTCCGA	0.172
CACAAGAC	-0.127
AACAGGCT	-0.151
CATATCCA	0.0239
ACCGAACG	0.269
GCGCGAAA	-0.00414
GTAAAAAC	0.175
GCTCCCTA	-0.164
CCTAAACG	0.472
GCTCGGAA	0.179
AGTTTTAA	0.0567
AGGCTACG	0.105
GACTTCGC	0.162
CTGTTTGA	-0.0401
CGCTGTTC	0.0477
AATGTAGG	-0.245
CCCTAGAC	-0.128
AGTCCCTG	-0.129
AGCTGTGG	-0.304
CAAAGTGG	-0.131

Sequence	PBM E-score
AGTACGTA	0.27
GGTAGACC	-0.00883
GTGACCGA	0.11
GACCGACC	0.102
AAGAGGCC	-0.074
AGCGCCCT	-0.158
GTTCGTGA	0.0858
CAGGTCCA	-0.11
CTTGCGCC	-0.103
CACCACTG	-0.126
ATCGACGA	-0.0697
CCGACTAC	0.0367
ACGAAGCG	0.343
ATTCTTTG	-0.17
ATTAAGGA	-0.198
GCCATTCA	-0.162
AGCTGCGA	-0.0413
GCTGATGA	-0.0312
CTAGTGAA	-0.126
CCAGGGAC	-0.193
ATGTCTTC	-0.335
ACCCAAAC	0.195
ATCCCCAC	-0.103
CAACAGCA	-0.232

Sequence	PBM E-score
CAAACGAG	0.484
ATATTGAA	0.0809
AATCATAG	-0.217
GACCGGAC	0.00589
CTCTAATC	-0.0321
CACGAGTC	0.00415
ACCTTCGC	0.0425
CAGCGGAG	-0.106
AAAGCCCG	0.0429
AACATTCG	0.0483
AATTACCG	0.217
GTTCAGAA	0.222
AACAAGAA	-0.031
AGTGGATG	-0.00268
ACAGACCC	-0.071
TACCTGAA	0.0855
AAAGGTGG	-0.0797
ACGGCCTA	0.157
AGATGGCA	0.0387
ACCTGAGC	-0.091
ACTCAGAT	-0.0886
ACGATTAA	0.321
TCCGCGCA	-0.0128
AACTATCA	0.134

Sequence	PBM E-score
CTGCGCGC	0.0709
GTATTACA	0.123
CGGTGCCA	-0.219
ACGAGAGG	0.353
TACTTCTA	0.022
AATACAGA	0.00408
CGTACATA	0.415
ACCCGACT	0.0188
GCGAATCC	0.218
AAGCCGAG	0.0185
AGCGGTCA	-0.126
TCTATTCA	0.0757
GGCTGACA	-0.201
CATTCGGC	-0.197
AACGGGTC	0.201
AGCAAGAT	-0.0379
GTTTTGTA	0.185
GACGCGAC	-0.00419
CTCCCTTC	-0.341
CTCTTGAC	-0.148
AATCTCAG	-0.182
GCTTCACA	-0.124
ACTTCTTG	0.0022
AGTCGCAT	0.171

Sequence	PBM E-score
ATTATGAA	-0.13
GCTCAAAC	0.116
GCGAGCAC	0.202
GATGTCGC	0.137
GATTGGGA	-0.326
CTCATACC	0.051
CGCTAGTA	0.118
CTGGTGGC	-0.12
CCGCCCCG	0.136
ATAAAATA	-0.00219
AAACGTCC	0.156
GTGTTCGA	0.206
CGTTTTCA	0.13
AACGTACG	0.386
ACTGCCTG	-0.081
ACGTGAAT	0.125
CGTCTACC	0.0136
GCGGCTAC	-0.136
AAGTAGAT	-0.0764
ACGATGCG	0.332
CGCTCACG	0.124
CCAGTACA	-0.157
ATCTTGAC	-0.141
AGGGGTTC	-0.0893

Sequence	PBM E-score
AATTGGCA	-0.0372
GGTCCAGA	-0.222
CGTGAATC	0.00286
AGGTGGAC	-0.314
GTTCCGCA	0.172
GAACGGTA	0.283
ACGCAGCC	-0.158
AAATTAGT	-0.0881
AAAAGCCG	0.0198
CCGCGCAC	-0.113
AATCAAAA	-0.0286
CAATTAAC	0.0844
CCCGCCGG	-0.238
ACGTAGTC	-0.0476
GAGGCAGA	0.0168
ATTTTGCA	-0.0911
GACCGGCC	-0.11
AGCCGTAT	0.378
CCAGTGCC	-0.00341
CGGGAAAA	0.172
CCTATAAA	-0.07
GCCGGCGA	-0.152
AACATTTA	0.0973
AGCCATGA	-0.065

Sequence	PBM E-score
GGGAGCCC	-0.191
CTGTTGTA	-0.0648
AAAGAACA	-0.0314
TAACTTCA	0.103
CAGATTAG	-0.223
GACAACAA	-0.0425
AGAGATAT	-0.122
GAGTGCAC	0.00822
AATTTTCC	0.117
AGTGAAGA	-0.0947
AGCGGAAG	-0.0236
CATAGGTA	-0.0203
ATTTGAGC	0.0293
ACAGCCCA	-0.0191
CCGACCGG	0.14
CGATGCAA	0.0494
ATGACATA	0.0138
ATTCGATG	0
ATCGCTCA	0.217
GTAGCGTA	0.257
AGTGTGCA	-0.165
CAAGACGA	0.0303
ACGTTGAT	0.0223
CTGGCGGC	-0.173

Sequence	PBM E-score
CAGTGCAC	-0.136
ACCTGACC	-0.0507
AAAAACAC	-0.0437
GACCCCAC	0.0512
ATACTTTG	-0.0806
GGTCGTGA	-0.0444
GAGAACCC	-0.121
TCAATGGA	-0.238
CTCTTATA	0.339
AGATGCAG	-0.113
AATTATCT	-0.0252
ACCGAACT	0.0158
CTGGTTTC	-0.0981
AGCACAAC	0.0579
AAGGCTGA	-0.316
AAATTGTG	0.00889
AAGAACAC	0.102
CAAGACCC	-0.0824
AAGACTCG	0.00623
CAGCGCAG	-0.217
CACGCTGA	-0.154
TCCCCAAA	-0.079
CGATTGTC	-0.0824
CAAAAGCC	-0.261

Sequence	PBM E-score
CTGATCGA	-0.0874
AATACAGC	-0.0975
ACTTCATC	-0.0236
GAAGGTAC	0.164
AGGTCGTG	0.0575
CCGCGGCG	-0.117
CCAGTGAA	-0.26
GACGCCTA	-0.0797
AGGTAATA	-0.0412
GTGGCCCA	-0.0479
ATCCCTCG	0.13
AGGCCACA	-0.327
CAATGATA	-0.0998
ATTCTTCG	0.15
GAGGCCAC	-0.112
CGTGATAA	0.0618
AGTTCACC	0.103
GTTTGGTA	0.285
CCTCACAG	-0.0653
AAAGCCTT	-0.169
CTGCATAA	-0.158
GTTGGTTA	0.0699
